Data taken from the supplement of paper PMC12217912.
This is one part of the list. The full chains were built here from the parent and the listed change. Values near 0.05 are background.

B1: TEV protease; numbered along this chain (parent)
chain: MGESLFKGPRDYNPISSSICHLTNESDGHTTSLYGIGFGPFIITNKHLFRRNNGTLVVQSLHGVFKVKDTTTLQQHLVDGRDMIIIRMPKDFPPFPQKLKFREPQREERICLVTTNFQTKSMSSMVSDTSCTFPSGDGIFWKHWIQTKDGQCGSPLVSTRDGFIVGIHSASNFTNTNNYFTSVPKNFMELLTNQEAQQWVSGWRLNADSVLWGGHKVFMVKPEEPFQPVKEATQL

Variants of: B1
Assay: raw area under fraction-flipped curve 0-4 h after induction (AUC4h, not background-subtracted), DNA-recorder readout of cleavage of the substrate (dimensionless); higher = more cleavage of the substrate by the protease variant
Details: temperature: 34 °C; time window: 0-4 h after rhamnose induction
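Note: Bxb1 expression induced with 0.2% (w/v) L-rhamnose at OD600 near 0.5, cultures sampled hourly, flipped fraction per protease–substrate barcode pair counted by paired-end Illumina sequencing.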

| Variant | area with substrate ENDYFQS | area with substrate ENHYFQS | area with substrate ENIYFQS | area with substrate ENMYFQS | area with substrate ENNYFQS | area with substrate ENYYFQS | area with substrate ENEYFQS | area with substrate ENRYFQS | area with substrate ENSYFQS | area with substrate ENTYFQS |
| --- | --- | --- | --- | --- | --- | --- | --- | --- | --- | --- |
| MGESLFKGPRDYNPISSSICHLTNESDGHTTSLYGIGFGPFIITNKHLFRRNNGTLVVQSLHGVFKVKDTTTLQQHLVDGRDMIIIRMPKDFPPFPQKLKFREPQREERICLVTTNFQTKSMSSMVSDTSCTFPSGDGIFWKHWIQTKDGQCGSPLVSTRDGFIIGIHSASNFTNTNNYFTSVPKNFMELLTNQEAQQWVSGWRLNADSVLWGGHKVFMVKPEEPFQPVKEATQL [V165I] | 0.0725 | 0.0824 | 0.143 | 0.0803 | 0.0496 | 0.0923 |  |  |  |  |
| MGESLFKGPRDYNPISSSICHLTNESDGHTTSLYGIGFGPFIITNKHLFRRNNGTLVVQSLHGVFKVKDTTTLQQHLVDGRDMIIIRMPKDFPPFPQKLKFREPQREERICLVTTNFQTKSMSSMVSDTSCTFPSGDGIFWKHWIQTKDGQCGSPLVSTRDGNIVGIHSASNFTNTNNYFTSVPKNFMELLTNQEAQQWVSGWRLNADSVLWGGHKVFMVKPEEPFQPVKEATQL [F163N] | 0.069 |  |  |  |  |  | 0.0867 | 0.077 | 0.0699 | 0.097 |
| MGESLFKGPRDYNPISSSICHLTNESDGHTTSLYGIGFGPFIITNKHLFRRNNGTLVVQSLHGVFKVKDTTTLQQHLVDGRDMIIIRMPKDFPPFPQKLKFREPQREERICLVTTNFQTKSMSSMVSDTSCTFPSGDGIFWKHWIQTKDGQCGSPLVSTRDGFIVGIHSASLFTNTNNYFTSVPKNFMELLTNQEAQQWVSGWRLNADSVLWGGHKVFMVKPEEPFQPVKEATQL [N172L] | 0.0644 |  |  |  |  |  |  |  |  |  |
| MGESLFKGPRDYNPISSSICHLTNESDGHTTSLYGIGFGPFIITNKHLFRRNNGTLVVQSLHGVFKVKDTTTLQQHLVDGRDMIIIRMPKDFPPFPQKLKFREPQREERICLVTTNFQTKSMSSMVSDTSCTFPSGDGIFWKHWIQTKDGQCGSPLVSTRDGFIVGIHSASQFTNTNNYFTSVPKNFMELLTNQEAQQWVSGWRLNADSVLWGGHKVFMVKPEEPFQPVKEATQL [N172Q] | 0.0531 |  |  |  | 0.0578 |  |  |  |  |  |
| MGESLFKGPRDYNPISSSICHLTNESDGHTTSLYGIGFGPFIITNKHLFRRNNGTLVVQSLHGVFKVKDTTTLQQHLVDGRDMIIIRMPKDFPPFPQKLKFREPQREERICLVTTNFQTKSMSSMVSDTSCTFPSGDGIFWKHWIQTKDGQCGSPLVSTRDGFIVGIHSASWFTNTNNYFTSVPKNFMELLTNQEAQQWVSGWRLNADSVLWGGHKVFMVKPEEPFQPVKEATQL [N172W] | 0.0634 |  |  |  |  |  |  |  |  |  |
| MGESLFKGPRDYNPISSSICHLTNESDGHTTSLYGIGFGPFIITNKHLFRRNNGTLVVQSLHGVFKVKDTTTLQQHLVDGRDMIIIRMPKDFPPFPQKLKFREPQREERICLVTTNFQTKSMSSMVSDTSCTFPSGDGIFWKHWIQTKDGQCGSPLVETRDGFIVGIHSASNFTNTNNYFTSVPKNFMELLTNQEAQQWVSGWRLNADSVLWGGHKVFMVKPEEPFQPVKEATQL [S158E] | 0.0688 |  |  |  |  |  |  |  | 0.0517 |  |
| MGESLFKGPRDYNPISSSICHLTNESDGHTTSLYGIGFGPFIITNKHLFRRNNGTLVVQSLHGVFKVKDTTTLQQHLVDGRDMIIIRMPKDFPPFPQKLKFREPQREERICLVTTNFQTKSMSSMVSDTSCTFPSGDGIFWKHWIQTKDGQCGSPLVLTRDGFIVGIHSASNFTNTNNYFTSVPKNFMELLTNQEAQQWVSGWRLNADSVLWGGHKVFMVKPEEPFQPVKEATQL [S158L] | 0.0525 |  |  |  | 0.0521 |  |  | 0.045 |  |  |
| MGESLFKGPRDYNPISSSICHLTNESDGHTTSLYGIGFGPFIITNKHLFRRNNGTLVVQSLHGVFKVKDTTTLQQHLVDGRDMIIIRMPKDFPPFPQKLKFREPQREERICLVTTNFQTKSMSSMVSDTSCTFPSGDGIFWKHWIQTKDGQCGSPLVSTRDGFIVGIHSASNFINTNNYFTSVPKNFMELLTNQEAQQWVSGWRLNADSVLWGGHKVFMVKPEEPFQPVKEATQL [T174I] | 0.0602 |  |  | 0.0768 |  |  |  |  |  |  |
| MGESLFKGPRDYNPISSSICHLTNESDGHTTSLYGIGFGPFIITNKHLFRRNNGTLVVQSLHGVFKVKDTTTLQQHLVDGRDMIIIRMPKDFPPFPQKLKFREPQREERICLVTTNFQTKSMSSMVSDTSCTFPSGDGIFWKHWIQTKDGQCGNPLVSTRDGFIVGIHSASNFTNTNNYFTSVPKNFMELLTNQEAQQWVSGWRLNADSVLWGGHKVFMVKPEEPFQPVKEATQL [S154N] | 0.0488 |  |  |  |  |  | 0.0457 |  |  |  |
| MGESLFKGPRDYNPISSSICHLTNESDGHTTSLYGIGFGPFIITNKHLFRRNNGTLVVQSLHGVFKVKDTTTLQQHLVDGRDMIIIRMPKDFPPFPQKLKFREPQREERICLVTTNFQTKSMSSMVSDTSCTFPSGDGIFWKHWIQTKDGQCGSPLVSPRDGFIVGIHSASNFTNTNNYFTSVPKNFMELLTNQEAQQWVSGWRLNADSVLWGGHKVFMVKPEEPFQPVKEATQL [T159P] | 0.0631 |  | 0.147 |  |  | 0.0604 | 0.0496 |  |  | 0.0737 |
| MGESLFKGPRDYNPISSSICHLTNESDGHTTSLYGIGFGPFIITNKHLFRRNNGTLVVQSLHGVFKVKDTTTLQQHLVDGRDMIIIRMPKDFPPFPQKLKFREPQREERICLVTTNFQTKSMSSMVSDTSCTFPSGDGIFWKHWIQTKDGQCGSPLVSTRDVFIVGIHSASNFTNTNNYFTSVPKNFMELLTNQEAQQWVSGWRLNADSVLWGGHKVFMVKPEEPFQPVKEATQL [G162V] | 0.0498 |  |  |  |  | 0.0437 |  |  | 0.0567 |  |
| MGESLFKGPRDYNPISSSICHLTNESDGHTTSLYGIGFGPFIITNKHLFRRNNGTLVVQSLHGVFKVKDTTTLQQHLVDGRDMIIIRMPKDFPPFPQKLKFREPQREERICLVTTNFQTKSMSSMVSDTSCTFPSGDGIFWKHWIQTKDAQCGSPLVSTRDGFIVGIHSASNFTNTNNYFTSVPKNFMELLTNQEAQQWVSGWRLNADSVLWGGHKVFMVKPEEPFQPVKEATQL [G150A] | 0.0614 | 0.0825 |  | 0.0579 | 0.0598 | 0.0699 |  |  | 0.0681 |  |

Same assay, conditions: temperature: 34 °C; time window: 0-4 h after rhamnose induction

| Variant | area with substrate ENWYFQS | area with substrate ENGYFQS | area with substrate ENKYFQS | area with substrate ENFYFQS | area with substrate ENPYFQS | area with substrate ENQYFQS | area with substrate ENVYFQS |
| --- | --- | --- | --- | --- | --- | --- | --- |
| MGESLFKGPRDYNPISSSICHLTNESDGHTTSLYGIGFGPFIITNKHLFRRNNGTLVVQSLHGVFKVKDTTTLQQHLVDGRDMIIIRMPKDFPPFPQKLKFREPQREERICLVTTNFQTKSMSSMVSDTSCTFPSGDGIFWKHWIQTKDGQCGSPLVSTRDGNIVGIHSASNFTNTNNYFTSVPKNFMELLTNQEAQQWVSGWRLNADSVLWGGHKVFMVKPEEPFQPVKEATQL [F163N] | 0.0577 |  |  |  |  |  |  |
| MGESLFKGPRDYNPISSSICHLTNESDGHTTSLYGIGFGPFIITNKHLFRRNNGTLVVQSLHGVFKVKDTTTLQQHLVDGRDMIIIRMPKDFPPFPQKLKFREPQREERICLVTTNFQTKSMSSMVSDTSCTFPSGDGIFWKHWIQTKDGQCGSPLVSTRDGFIVGIHSASQFTNTNNYFTSVPKNFMELLTNQEAQQWVSGWRLNADSVLWGGHKVFMVKPEEPFQPVKEATQL [N172Q] |  | 0.06 | 0.0655 |  |  |  |  |
| MGESLFKGPRDYNPISSSICHLTNESDGHTTSLYGIGFGPFIITNKHLFRRNNGTLVVQSLHGVFKVKDTTTLQQHLVDGRDMIIIRMPKDFPPFPQKLKFREPQREERICLVTTNFQTKSMSSMVSDTSCTFPSGDGIFWKHWIQTKDGQCGSPLVSTRDGFIVGIHSASWFTNTNNYFTSVPKNFMELLTNQEAQQWVSGWRLNADSVLWGGHKVFMVKPEEPFQPVKEATQL [N172W] |  |  |  | 0.0457 |  |  |  |
| MGESLFKGPRDYNPISSSICHLTNESDGHTTSLYGIGFGPFIITNKHLFRRNNGTLVVQSLHGVFKVKDTTTLQQHLVDGRDMIIIRMPKDFPPFPQKLKFREPQREERICLVTTNFQTKSMSSMVSDTSCTFPSGDGIFWKHWIQTKDGQCGSPLVETRDGFIVGIHSASNFTNTNNYFTSVPKNFMELLTNQEAQQWVSGWRLNADSVLWGGHKVFMVKPEEPFQPVKEATQL [S158E] |  |  |  |  | 0.0595 | 0.057 |  |
| MGESLFKGPRDYNPISSSICHLTNESDGHTTSLYGIGFGPFIITNKHLFRRNNGTLVVQSLHGVFKVKDTTTLQQHLVDGRDMIIIRMPKDFPPFPQKLKFREPQREERICLVTTNFQTKSMSSMVSDTSCTFPSGDGIFWKHWIQTKDGQCGSPLVSTRDGFIVGIHSASNFINTNNYFTSVPKNFMELLTNQEAQQWVSGWRLNADSVLWGGHKVFMVKPEEPFQPVKEATQL [T174I] |  | 0.0744 |  |  |  |  |  |
| MGESLFKGPRDYNPISSSICHLTNESDGHTTSLYGIGFGPFIITNKHLFRRNNGTLVVQSLHGVFKVKDTTTLQQHLVDGRDMIIIRMPKDFPPFPQKLKFREPQREERICLVTTNFQTKSMSSMVSDTSCTFPSGDGIFWKHWIQTKDGQCGNPLVSTRDGFIVGIHSASNFTNTNNYFTSVPKNFMELLTNQEAQQWVSGWRLNADSVLWGGHKVFMVKPEEPFQPVKEATQL [S154N] |  |  |  | 0.0587 |  | 0.0925 |  |
| MGESLFKGPRDYNPISSSICHLTNESDGHTTSLYGIGFGPFIITNKHLFRRNNGTLVVQSLHGVFKVKDTTTLQQHLVDGRDMIIIRMPKDFPPFPQKLKFREPQREERICLVTTNFQTKSMSSMVSDTSCTFPSGDGIFWKHWIQTKDGQCGSPLVSPRDGFIVGIHSASNFTNTNNYFTSVPKNFMELLTNQEAQQWVSGWRLNADSVLWGGHKVFMVKPEEPFQPVKEATQL [T159P] |  |  |  |  | 0.0824 |  |  |
| MGESLFKGPRDYNPISSSICHLTNESDGHTTSLYGIGFGPFIITNKHLFRRNNGTLVVQSLHGVFKVKDTTTLQQHLVDGRDMIIIRMPKDFPPFPQKLKFREPQREERICLVTTNFQTKSMSSMVSDTSCTFPSGDGIFWKHWIQTKDGQCGSPLVSTRDVFIVGIHSASNFTNTNNYFTSVPKNFMELLTNQEAQQWVSGWRLNADSVLWGGHKVFMVKPEEPFQPVKEATQL [G162V] |  | 0.0387 |  |  |  |  | 0.0736 |
| MGESLFKGPRDYNPISSSICHLTNESDGHTTSLYGIGFGPFIITNKHLFRRNNGTLVVQSLHGVFKVKDTTTLQQHLVDGRDMIIIRMPKDFPPFPQKLKFREPQREERICLVTTNFQTKSMSSMVSDTSCTFPSGDGIFWKHWIQTKDAQCGSPLVSTRDGFIVGIHSASNFTNTNNYFTSVPKNFMELLTNQEAQQWVSGWRLNADSVLWGGHKVFMVKPEEPFQPVKEATQL [G150A] |  |  | 0.0763 |  |  |  |  |
